In EP4154878A1, “APPLICATION OF ACTIVE […] ROOT OF […] OR PHARMACEUTICALLY ACCEPTABLE SALT THEREOF IN PREPARING ANTIVIRAL DRUG” (priority 2020, dated 2021):

Target: T1, SARS-CoV-2 HR1P and HR2P (Severe acute respiratory syndrome coronavirus 2, UniProt P0DTC2)
T1 construct: made in house; host or cells: chemical peptide synthesis (no expression host)
Type: biochemical

O=C(/C=C/c1ccc(O)c2c1[C@H](C(=O)O[C@H](Cc1ccc(O)c(O)c1)C(=O)O)[C@@H](c1ccc(O)c(O)c1)O2)O[C@H](Cc1ccc(O)c(O)c1)C(=O)O [salvianolic acid B]
percentage of an α-helix by combination by HR1P and HR2P: 22.24%
